# The campaign covered roughly 150,000 compounds. About 540 (0.36%) showed an effect of 50% or more. Some of the results follow.
# Tested on: Plasmodium falciparum
# Assay: Primary screen in NF54 nanoGlo assay, in single point, at 2uM, 72h; a lower Z score goes with more inhibition
# Type: functional, Erythrocyte
# Conditions: timepoint 72 hour
Compound,% Inhibition,Z score
Cc1ccc2[nH]cc(CN(C)Cc3cn(C)nc3-c3ccccc3F)c2c1,1%,-0.22
O=C1OCCCN1CCNc1nccc(N2CCNC3CS(=O)(=O)CC32)n1 (stereo unspecified),-3%,0.57
CN(C)C1CCN(CCNC(=O)c2cccc(-c3cnco3)c2)CC1,-5%,0.78
Cc1nccn1CC(=O)N1CCC2(CC1)CN(CC1=CCCCC1)CCO2,-13%,2.02
Cc1cc(O)c(Cl)cc1-c1ncnc2[nH]ccc12,1%,-0.29
c1ccc(-c2ccnc(C3CCN(CC45CNCC4C5)CC3)n2)cc1 (stereo unspecified),89%,-13.57
O=C(C1CCCN1C(=O)C1CCCC1)N1CCC(Nc2ccc3nccn3n2)C1 (stereo unspecified),-8%,1.24
CC1(Cc2noc([C@H]3CC(=O)N(CCN4CCOCC4)C3)n2)CCCC1,-8%,1.26
CCc1c[nH]c2ncnc(Nc3ccc(OC)c(S(C)(=O)=O)c3)c12,1%,-0.1
CC(CN1CCCCCC1)N1C[C@H]2C[C@H](O)[C@H](O)C[C@H]2C1 (stereo partly specified),-1%,0.11
CCn1nc(CN2CCC[C@H](COC)CC2)c2ccccc21,5%,-0.79
CN(C)C[C@H](O)Cn1cc(NC(=O)c2cc3ccc(Cl)cc3[nH]2)cn1,10%,-1.71
O=C(c1ccc(-c2cn[nH]c2)cc1)N1CC(NC2CCOCC2)C1,-6%,1.21
Cc1cccc2[nH]c(CNc3ncnc4c3c(C)nn4C)nc12,-2%,0.41
O=C(NCCc1ccc2[nH]ccc2c1)N1CCC(N2CCc3cc(F)ccc32)CC1,-2%,0.4
Cn1ncc2cc(-c3cccc(C(=O)N4CCC[C@H](C(N)=O)C4)c3)ccc21,-17%,3.65
c1ccc2[nH]c(CNCc3cc(CN4CCCCC4)cs3)cc2c1,2%,-0.29
CCCCOCCOCCNc1ncnc2oc(-c3ccccc3)cc12,-3%,0.51
OC[C@H]1CCCN(CCNCc2ccc3ccn(Cc4ccccc4)c3c2)C1,1%,-0.24
O=C(NCCNS(=O)(=O)c1cccs1)[C@H]1CC12CCS(=O)(=O)CC2,2%,-0.34
CC(NCCC(=O)N1CCN(C)CC1)C1CCCN(C2CCC2)C1 (stereo unspecified),-4%,0.78

Compound,% Inhibition,Z score
N#Cc1c(-c2cccc(CN3CCOCC3)c2)cc(-c2ccc[nH]2)nc1N,9%,-1.5
CCCc1cc(C(=O)N[C@@H](C(=O)O)c2ccc(F)cc2)[nH]n1,4%,-0.82
Cc1ccncc1CC(=O)NCC1(O)CCN(C(=O)Cc2cnccc2C)CC1,-12%,1.85
O=C1C[C@H](CN2CCC(N3CCN(CCO)CC3)CC2)CN1c1ccccc1,-8%,1.62
c1ccc(-c2nc3c(c(NC[C@@H]4OCCc5ccccc54)n2)CCNCC3)nc1,0%,-0.09
C[C@]1(NC(=O)Nc2c(F)cccc2F)CCOC1=O,-7%,1.02
Nc1ccc(-c2ccc(C(=O)NC3CCN(Cc4ccco4)CC3)cc2)cn1,-9%,1.5
Cc1cc(NC[C@H]2CC(=O)N(C3CCCC3)C2)c2ccccc2n1,3%,-0.45
Cc1cc(N2CCN(CC(O)c3ccccc3)C(C)C2)nc(N)n1 (stereo unspecified),8%,-1.8
CC(C)c1noc(CCNc2nc(-c3cccnc3)nc3c2CCNC3)n1,3%,-0.53
O=C(Nc1ccc(NC2CCOCC2)cc1)c1c[nH]c2ncccc12,-1%,0.22
OC1(c2ccc(Cl)cc2)CCN(C[C@@H]2CCCN3CCCC[C@H]23)CC1,82%,-16.27
CCc1ncc(-c2c(-c3ccccc3)ncn2[C@H](c2nccn2C)C2CC2)cn1,-5%,1.05
CC(=O)Nc1cc(CNCc2cccc(-c3ccccc3C)c2)cc(C(=O)N2CCN(C)CC2)c1,-9%,1.54
CC1CN(c2ccc(NC(=O)c3ccccc3-c3nc(C(C)C)no3)cn2)CC(C)O1 (stereo unspecified),-3%,0.55
O=C(Nc1cnc(N2CCNCC2)c(C(=O)N2CCCCCC2)c1)c1ccccc1,-8%,1.38
Cc1n[nH]c2ncc(CNc3ccc(N4CCCC4)cn3)cc12,-8%,1.64
FC(F)Oc1cc(-c2nc(-c3cccnc3OC3CCCC3)no2)ccn1,-15%,2.29
c1nnc(CN2CCN(C[C@@H]3CCCN4CCCC[C@H]34)CC2)[nH]1,-2%,0.35
CCOc1cc(NCCc2nc(-c3ccncc3)cs2)ncn1,-4%,0.89
Cc1cc(N2CCC(N3CCC[C@H](C(=O)NCCc4ccccc4)C3)CC2)nc(N)n1,-12%,2.48

Compound,% Inhibition,Z score
CC(C)c1ccnc(N2CCN(CC(=O)Nc3cnccn3)CC2)n1,1%,-0.16
Cc1cccc(N(C(=O)CCn2ncn(C)c2=O)C(C)C)c1,-10%,1.48
C[C@@H](CNC(=O)NC1(CO)CCCC1)c1ccc(Cl)cc1,-7%,1.21
Cc1ccccc1-c1cccc(N2CCC(NCC3CCNCC3)CC2)c1,98%,-19.56
COc1ccc(CN(C)Cc2c[nH]nc2C)cc1Cl,-4%,0.79
O=C(Nc1cnn(CC(F)(F)F)c1)N1CCC(c2c[nH]c3ncccc23)CC1,-1%,0.17
CCN1CCN(CCCNC(=O)c2ncoc2-c2ccccc2C(=O)N2CCCCC2)CC1,-5%,0.81
COCCN1CCN(C(=O)Nc2ccc3nc(C(F)(F)F)oc3c2)CC1,-9%,1.53
O=C(NC1CCN(CC2CCCCC2)CC1)[C@@H]1CN(S(=O)(=O)c2ccccc2Cl)CCO1,-11%,1.81
CC[C@H](C)NC(=O)c1cccc(Nc2ccnc(-c3cccc(F)c3)n2)c1,-7%,1.15
C[C@@H](c1ccc(-c2ccccc2CN2CCNCC2)cc1)N1CCOCC1,12%,-2.09
Cc1cc(Nc2nccn(C)c2=O)c2ccccc2n1,0%,-0.07
O=C(NCCN1CCCCC1)c1cccc(-c2cnc3ccc(F)cn23)c1,34%,-5.92
CCOC1CN(C(=O)c2ccc(Cl)c(C)c2)CC1O (stereo unspecified),3%,-0.61
CCN(Cc1nnc(-c2cccnc2)o1)CC1CCN(C2CCN(C)CC2)CC1,4%,-0.59
Fc1cccc2[nH]c(CN[C@H]3CCc4[nH]ncc4C3)cc12,4%,-0.95
CC(C)Nc1cc(-c2cc(OC(F)(F)F)ccc2O)ncn1,1%,-0.31
CCN1CCN(CCNCc2ccc(Cl)c(C(F)(F)F)c2)CC1,9%,-1.53
COc1cccc(C2=CCN(C(=O)c3cc4n(n3)CCC4)C2)c1,-16%,2.48
Cc1cccc2sc(NCc3cccc(N4CCOCC4)n3)nc12,-4%,0.61
O=S(=O)(N[C@H]1CCN(c2ccccn2)C1)c1ccc(-c2cccc(C(F)(F)F)c2)cc1,-8%,1.41

Compound,% Inhibition,Z score
Cn1nnc(CNC2(c3ccc(C#N)cc3)CCOCC2)n1,-9%,1.89
OC1CN(c2ncnc3ccsc23)CC1Cc1ccnc2ccccc12 (stereo unspecified),-2%,0.5
Cn1cc(C(=O)N2CCc3[nH]c4ccccc4c3C2)c(-c2ccc3c(c2)OCCCO3)n1,-4%,0.53
CCc1cccc(Nc2cc(C(=O)OC)nc3c(F)cccc23)c1,-2%,0.4
O=C(c1cc2occc2[nH]1)N1CCC[C@H](NCc2ccccc2)C1,2%,-0.36
CC(C)C1COCCC1Nc1cnn(-c2ccncc2)c1 (stereo unspecified),3%,-0.66
Cc1cc(N2CCCN(C3CCN(C(=O)c4ccncc4)CC3)CC2)ccn1,-2%,0.42
OC1CCN(Cc2cccc(NCc3cccc(OCCn4ccnc4)c3)c2)CC1,-3%,0.55
COc1cc(-c2c(C#N)c(N)nc3c2c(=O)nc2sccn23)ccc1OCc1cccc(F)c1,-4%,0.63
CCCN1CCC(N2CC(c3cccnc3)C(c3nc(C4CCCC4)no3)C2)CC1 (stereo unspecified),24%,-4.28
Cc1cnc(C(C)(C)NS(=O)(=O)c2cnn(C)c2)s1,-10%,1.48
O=C(Cc1ccc(N2CCC(NCCc3cccc4ccccc34)CC2)cc1)N1CCC(O)CC1,-8%,1.46
COc1ccc(CNC2CCN(Cc3cccc(F)c3)CC2)cn1,-4%,0.76
CCc1nc(N)nc(NCCCc2nc(C)cs2)c1C,-2%,0.36
c1c(CN2CCCN(CCCN3CCCC3)CC2)nn2c1CNCC2,4%,-0.88
N#Cc1ccc(C#Cc2ccc(C#Cc3ccc(C#N)c(C#N)c3)cc2)cc1C#N,-1%,0.21
CN1CCS(=O)(=O)CC1CC(=O)N[C@@H]1C[C@H]1c1cccc(Cl)c1 (stereo partly specified),-9%,1.84
OC[C@H]1c2cn[nH]c2CN1CCOCC1CCC1,0%,-0.02
CNC(=O)[C@H](Cc1c[nH]cn1)NC(=O)CC1CCCCC1,2%,-0.32
CC[C@]1(CCc2ccccc2)CCCN1C(=O)c1c[nH]c(=O)cc1C,14%,-2.39

# Reference: ChEMBL document CHEMBL5308541, “MAIP: An Open-Source Tool to Enrich High-Throughput Screening Output and Identify Novel, Druglike Molecules with Antimalarial Activity” (ACS Med Chem Lett, 2023)
